Results as given in PubChem BioAssay AID1832 (Broad Institute, 2009).
Hit rate of the full screen: of about 300,000 compounds, about 1,100 (0.37%) were called active. Inconclusive results, whose numbers are uncertain, are shown with a selection of clear calls.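 Rule for the calls: active = inhibition past about -25% in most replicates, and total fluorescence under double the plate's negative control median (limit read from the data); inconclusive = replicates evenly split on the limit, or fluorescence at least double controls; inactive = too little inhibition in most replicates.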

biological target: Zinc finger protein mex-5 (Caenorhabditis elegans) (UniProt Q9XUB2); experiment: MEX-5 zinc finger RNA-binding disruptors – biochemical, C. elegans, fluorescence polarization, MLPCN library, primary screen (AID 1832); conditions: MEX-5/FITC-TCR2 RNA binding, at 10 µM, stronger effect = lower value;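 note: 0% = DMSO and -100% = 5 µM competing unlabeled TCR2 RNA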
Sequence of UniProt Q9XUB2 (Q9XUB2 whole entry, looked up): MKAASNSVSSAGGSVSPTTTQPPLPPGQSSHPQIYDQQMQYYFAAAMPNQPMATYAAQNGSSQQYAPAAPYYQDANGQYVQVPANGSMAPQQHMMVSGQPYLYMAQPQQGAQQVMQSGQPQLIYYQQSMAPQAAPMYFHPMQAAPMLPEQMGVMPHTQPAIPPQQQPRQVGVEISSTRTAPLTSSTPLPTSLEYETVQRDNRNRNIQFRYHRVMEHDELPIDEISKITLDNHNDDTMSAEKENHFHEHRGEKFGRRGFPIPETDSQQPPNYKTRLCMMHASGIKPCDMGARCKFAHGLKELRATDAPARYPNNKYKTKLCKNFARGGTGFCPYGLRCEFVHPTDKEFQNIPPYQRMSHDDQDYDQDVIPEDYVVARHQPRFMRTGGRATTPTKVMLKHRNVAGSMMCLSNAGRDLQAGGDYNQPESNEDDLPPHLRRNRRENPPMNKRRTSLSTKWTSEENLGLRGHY

| SMILES | activity score (negative = inhibition of binding) |
| --- | --- |
| O=C(CN1C(=O)C2CC=C(Cl)CC2C1=O)NCc1ccccc1 (stereo not drawn) | active: -26.8% |
| CCN(CC)c1ccc2cc(-c3nc4ccccc4[nH]3)c(=O)oc2c1 | inconclusive: -63.5% [fluorescent] |
| C=CCn1c(=N)c(S(=O)(=O)c2ccc(C)c(C)c2)cc2c(=O)n3ccccc3nc21 | inconclusive: -89.9% [fluorescent] |
| N#C/C(=C\c1ccc(N2CCOCC2)o1)C(=O)Nc1ccc(O)cc1 | inconclusive: 87% [fluorescent] |
| S=C(Nc1ccc(N2CCOCC2)cc1)Nc1ccc2nc(-c3ccco3)c(-c3ccco3)nc2c1 | inactive: -1.16% |
| COc1nc(C)cc(C)c1S(=O)(=O)c1ccccc1 | inactive: -0.858% |
| COc1cc2[nH]c(C(=O)NN)c(N)c2cc1OC | inconclusive: -22.9% |
| COc1cc(C2C(C(=O)c3ccc(C)o3)=C(O)C(=O)N2c2cc(C)on2)ccc1OCc1ccccc1 (stereo not drawn) | inactive: 1.83% |
| NC(=O)CC(NC(=O)Cc1cccc2ccccc12)c1ccc(NCc2ccccc2)c([N+](=O)[O-])c1 (stereo not drawn) | inactive: 1.11% |
| O=C(Nc1ccc(Br)cn1)c1ccc2nccnc2c1 | inconclusive: -24.1% |
| Cc1ccc(N/C=C2/Sc3ccccc3NC2=O)cc1 | active: -53.6% |
| CCN(CC)c1nc2ccccc2nc1C(C#N)C(=O)NCCc1ccccc1 (stereo not drawn) | inconclusive: -127% [fluorescent] |
| O=C1c2cccc3c(N4CCCCC4)ccc(c23)C(=O)N1c1ccccn1 | active: -68.8% |
| COCCCn1c(=O)/c(=C\c2cccc(OC)c2OC)s/c1=C(/C#N)C(=O)Nc1ccc(C(=O)O)cc1 | inconclusive: -82% [fluorescent] |
| COc1cc2c(cc1OC)-c1cc3ccc4c(c3c[n+]1CC2)OCO4 | inconclusive: -65.4% [fluorescent] |
| c1ccc(C2=NNC(c3ccccn3)=NN2)nc1 | active: -36.3% |
| c1ccc2oc(CCc3nc4ccccc4o3)nc2c1 | inconclusive: -19.5% |
| Oc1c(Cl)cc(Cl)cc1/C=N/NC(=S)NC1CC2C=CC1C2 (stereo not drawn) | inactive: -0.484% |
| CCCCC1=CC2=CC(=O)C(C)(OC(=O)CC)C(=O)C2=CN1CCc1ccccn1 (stereo not drawn) | inactive: -6.14% |
| CCOc1ccc(N=C2NC(=O)S/C2=C\c2ccc(N(C)C)cc2)cc1 | inconclusive: -14.7% |
| C=CCN1C=CC(=C/C=C(/C#N)C(=O)OCC)C=C1 | inconclusive: 90.1% [fluorescent] |
| O=C(Nc1ccccc1)NC1(C(=O)NCc2ccc3c(c2)OCO3)CCCCC1 | inconclusive: -21.6% |
| O=C(OCCN1C(=O)c2cccc3c(N4CCOCC4)ccc(c23)C1=O)c1cccc(Cl)c1 | inconclusive: -111% [fluorescent] |
| CC(C)CSC1=NSC2=NC(=O)/C(=C\c3coc4ccccc4c3=O)C(=N)N12 | inconclusive: -64% [fluorescent] |
| Cc1nc(S/C(=C\c2ccc(-c3ccc(C(=O)O)c(Cl)c3)o2)C(=O)O)n[nH]1 | active: -90.9% |
| COc1ccccc1Oc1cn[nH]c1-c1ccc(OCC(=O)NN)cc1O | inconclusive: -22.5% |
| COCCCn1c(=NC(=O)c2ccccc2)c(C#N)cc2c(=O)n3cccc(C)c3nc21 | inconclusive: -86.9% [fluorescent] |

| SMILES | activity score (negative = inhibition of binding) |
| --- | --- |
| CCOC(=O)c1c(NC(=O)COc2ccccc2OCC)sc2c1CC(C)(C)NC2(C)C | inactive: -0.56% |
| COc1ccc(/C(C)=N/Nc2nc3ccccc3nc2C)cc1OC | inconclusive: -22.2% |
| COc1ccc(/C=C/c2cc(C(F)(F)F)[nH]c(=O)n2)cc1OC | inconclusive: -25.4% |
| CC(C)CC1=NN2C(=N)/C(=C\c3coc4ccccc4c3=O)C(=O)N=C2S1 | inconclusive: -55.8% [fluorescent] |
| O=c1nc2c(O)cccn2c2c1c(=O)[nH]c1ccccc12 | active: -26.3% |
| CC(=O)NN1C(=O)/C(=C\c2ccc(O)cc2)SC1=S | inconclusive: 69.5% [fluorescent] |
| NC(=O)c1cccc(N=Cc2cc(Cl)cc(Cl)c2O)c1 | inconclusive: -23.6% |
| CCOC(=O)c1sc(N)c(C#N)c1CSc1nc2ccc(C)cc2[nH]1 | inactive: -1.25% |
| O=C(Cc1ccccc1)NNC(=O)c1cnccn1 | inconclusive: -23.8% |
| O=C(NNc1ccccn1)C(=O)NNS(=O)(=O)c1ccc(Cl)cc1 | inactive: -10% |
| CCCn1nc(NC(=O)c2ccco2)c2cc3ccccc3nc21 | inactive: -2.06% |
| CCOc1ccc(/C=C/C(=O)c2c(O)c3ccccc3oc2=O)cc1 | inconclusive: -65.7% [fluorescent] |
| CSc1nsc2nc(=O)c(/C=C3\C=Nc4ccccc43)c(N)n12 | inconclusive: -25.2% |
| OCCCc1nc2n(n1)C(c1cccs1)C=C(c1ccccc1)N2 (stereo not drawn) | inconclusive: -100% [fluorescent] |
| Cc1ccc2nc3c(cc(C(=O)NCC4CCCO4)c(=N)n3C3CCCC3)c(=O)n2c1 (stereo not drawn) | inconclusive: -15.1% |
| O=C(O)c1cc(-c2cccs2)[nH]n1 | inactive: 1.6% |
| Clc1cc(Cl)c2nc(N3CCCCC3)sc2c1 | inactive: -1.06% |
| CC(C)N1CC=C2C(C#N)=C(N)C(C#N)(C#N)[C@H](c3ccoc3)[C@H]2C1 | inconclusive: -90% [fluorescent] |
| C/C(=N\Nc1cc(C)nc(-c2ccccc2O)n1)c1ccccc1O | inactive: -0.117% |
| C=CCc1cccc(/C=N/n2cnnc2)c1O | inconclusive: -25% |
| COc1cccc(-c2c(C#N)c(N)nc3c2c(C)nn3-c2ccccc2)c1O | inactive: -6.22% |
| Oc1ccc(N=Nc2nccs2)c(O)c1 | inconclusive: -23.6% |
| Cc1ccc2c(c1)c(/C=C/c1cc[n+](C)cc1)c(C)n2C | inconclusive: 39.2% [fluorescent] |
| C=CCN1C(=O)c2cccc3c(N4CCCCC4)ccc(c23)C1=O | inconclusive: 2.1% |
| C[n+]1cc(C(=O)N2CCCCC2)ccc1/C=C/c1c[nH]c2ccccc12 | inconclusive: 69% [fluorescent] |
| Cn1ccc(=NC=C(C#N)C#N)c2ccccc21 | inconclusive: -92.6% [fluorescent] |
